In the supplement of paper PMC8728848:
This is one part of the list.

Legend:
Assay in all cases: glycan array binding signal (z-score within array); higher = stronger binding
Conditions in all cases: glycan notation: IUPAC condensed, linker removed
[1] = biological target: Neu5Ac(a2-3)Gal
Summary of the method: (§1)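 From the Consortium for Functional Glycomics database, 3228 arrays were curated, keeping only those whose protein sequence was available. Binding is given as a within-array Z-score averaged across arrays sharing a protein sequence and across linkers. Negative Z-scores can be read as non-binding.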

[2] = biological target: Neu5Ac(a2-3)Gal(b1-3)GalNAc
Summary of the method: as §1

[3] = biological target: Neu5Ac(a2-3)Gal(b1-3)GalNAc(b1-3)Gal(a1-4)Gal(b1-4)Glc
Summary of the method: as §1

[4] = biological target: Neu5Ac(a2-3)Gal(b1-3)GalNAc(b1-4)Gal(b1-4)Glc
Summary of the method: as §1

[5] = biological target: Neu5Ac(a2-3)Gal(b1-3)GalNAc(b1-4)[Neu5Ac(a2-3)]Gal(b1-4)Glc
Summary of the method: as §1

[6] = biological target: Neu5Ac(a2-3)Gal(b1-3)GalNAc(b1-4)[Neu5Ac(a2-8)Neu5Ac(a2-3)]Gal(b1-4)Glc
Summary of the method: as §1

[7] = biological target: Neu5Ac(a2-3)Gal(b1-3)GalNAc6S
Summary of the method: as §1

[8] = biological target: Neu5Ac(a2-3)Gal(b1-3)GlcNAc
Summary of the method: as §1

[9] = biological target: Neu5Ac(a2-3)Gal(b1-3)GlcNAc(b1-2)Man
Summary of the method: as §1

[10] = biological target: Neu5Ac(a2-3)Gal(b1-3)GlcNAc(b1-2)Man(a1-3)[GlcNAc(b1-4)][Neu5Ac(a2-3)Gal(b1-3)GlcNAc(b1-2)Man(a1-6)]Man(b1-4)GlcNAc(b1-4)GlcNAc
Summary of the method: as §1

[11] = biological target: Neu5Ac(a2-3)Gal(b1-3)GlcNAc(b1-2)Man(a1-3)[Neu5Ac(a2-3)Gal(b1-3)GlcNAc(b1-2)Man(a1-6)]Man(b1-4)GlcNAc(b1-4)GlcNAc
Summary of the method: as §1

[12] = biological target: Neu5Ac(a2-3)Gal(b1-3)GlcNAc(b1-2)[Neu5Ac(a2-3)Gal(b1-3)GlcNAc(b1-4)]Man(a1-6)[Neu5Ac(a2-3)Gal(b1-3)GlcNAc(b1-2)Man(a1-3)]Man(b1-4)GlcNAc(b1-4)GlcNAc
Summary of the method: as §1

[13] = biological target: Neu5Ac(a2-3)Gal(b1-3)GlcNAc(b1-3)Gal(b1-3)GlcNAc
Summary of the method: as §1

[14] = biological target: Neu5Ac(a2-3)Gal(b1-3)GlcNAc(b1-3)Gal(b1-4)GlcNAc
Summary of the method: as §1

[15] = biological target: Neu5Ac(a2-3)Gal(b1-3)GlcNAc(b1-3)GalNAc
Summary of the method: as §1

[16] = biological target: Neu5Ac(a2-3)Gal(b1-3)GlcNAc(b1-6)GalNAc
Summary of the method: as §1

[17] = biological target: Neu5Ac(a2-3)Gal(b1-3)GlcNAc6S
Summary of the method: as §1

[18] = biological target: Neu5Ac(a2-3)Gal(b1-3)[Fuc(a1-4)]GlcNAc
Summary of the method: as §1

[19] = biological target: Neu5Ac(a2-3)Gal(b1-3)[Fuc(a1-4)]GlcNAc(b1-3)Gal(b1-3)[Fuc(a1-4)]GlcNAc
Summary of the method: as §1

[20] = biological target: Neu5Ac(a2-3)Gal(b1-3)[Fuc(a1-4)]GlcNAc(b1-3)Gal(b1-4)[Fuc(a1-3)]GlcNAc
Summary of the method: as §1

[21] = biological target: Neu5Ac(a2-3)Gal(b1-3)[GlcNAc(b1-6)]GalNAc
Summary of the method: as §1

[22] = biological target: Neu5Ac(a2-3)Gal(b1-3)[Neu5Ac(a2-6)]GalNAc
Summary of the method: as §1

[23] = biological target: Neu5Ac(a2-3)Gal(b1-3)[Neu5Ac(a2-6)]GlcNAc(b1-3)[Fuc(a1-3)[Gal(b1-4)]GlcNAc(b1-6)]Gal(b1-4)Glc
Summary of the method: as §1

[24] = biological target: Neu5Ac(a2-3)Gal(b1-3)]Neu5Ac(a2-3)Gal(b1-4)]GlcNAc
Summary of the method: as §1

[25] = biological target: Neu5Ac(a2-3)Gal(b1-4)Glc
Summary of the method: as §1

[26] = biological target: Neu5Ac(a2-3)Gal(b1-4)GlcNAc
Summary of the method: as §1

[27] = biological target: Neu5Ac(a2-3)Gal(b1-4)GlcNAc(b1-2)Man
Summary of the method: as §1

[28] = biological target: Neu5Ac(a2-3)Gal(b1-4)GlcNAc(b1-2)Man(a1-3)[GlcNAc(b1-4)][Neu5Ac(a2-3)Gal(b1-4)GlcNAc(b1-2)Man(a1-6)]Man(b1-4)GlcNAc(b1-4)GlcNAc
Summary of the method: as §1

[29] = biological target: Neu5Ac(a2-3)Gal(b1-4)GlcNAc(b1-2)Man(a1-3)[Neu5Ac(a2-3)Gal(b1-4)GlcNAc(b1-2)Man(a1-6)]Man(b1-4)GlcNAc(b1-4)GlcNAc
Summary of the method: as §1

[30] = biological target: Neu5Ac(a2-3)Gal(b1-4)GlcNAc(b1-2)Man(a1-3)[Neu5Ac(a2-3)Gal(b1-4)GlcNAc(b1-2)Man(a1-6)]Man(b1-4)GlcNAc(b1-4)[Fuc(a1-6)]GlcNAc
Summary of the method: as §1

[31] = biological target: Neu5Ac(a2-3)Gal(b1-4)GlcNAc(b1-2)Man(a1-3)[Neu5Ac(a2-6)Gal(b1-4)GlcNAc(b1-2)Man(a1-6)]Man(b1-4)GlcNAc(b1-4)GlcNAc
Summary of the method: as §1

[32] = biological target: Neu5Ac(a2-3)Gal(b1-4)GlcNAc(b1-2)[Neu5Ac(a2-3)Gal(b1-4)GlcNAc(b1-4)]Man(a1-3)[GlcNAc(b1-4)][Neu5Ac(a2-3)Gal(b1-4)GlcNAc(b1-2)[Neu5Ac(a2-3)Gal(b1-4)GlcNAc(b1-6)]Man(a1-6)]Man(b1-4)GlcNAc(b1-4)GlcNAc
Summary of the method: as §1

[33] = biological target: Neu5Ac(a2-3)Gal(b1-4)GlcNAc(b1-2)[Neu5Ac(a2-3)Gal(b1-4)GlcNAc(b1-4)]Man(a1-3)[GlcNAc(b1-4)][Neu5Ac(a2-3)Gal(b1-4)GlcNAc(b1-4)Man(a1-6)]Man(b1-4)GlcNAc(b1-4)GlcNAc
Summary of the method: as §1

[34] = biological target: Neu5Ac(a2-3)Gal(b1-4)GlcNAc(b1-2)[Neu5Ac(a2-3)Gal(b1-4)GlcNAc(b1-6)]Man(a1-6)[Neu5Ac(a2-3)Gal(b1-4)GlcNAc(b1-2)Man(a1-3)][GlcNAc(b1-4)]Man(b1-4)GlcNAc(b1-4)GlcNAc
Summary of the method: as §1

[35] = biological target: Neu5Ac(a2-3)Gal(b1-4)GlcNAc(b1-3)Gal
Summary of the method: as §1

[36] = biological target: Neu5Ac(a2-3)Gal(b1-4)GlcNAc(b1-3)Gal(b1-3)GlcNAc
Summary of the method: as §1

[37] = biological target: Neu5Ac(a2-3)Gal(b1-4)GlcNAc(b1-3)Gal(b1-4)GlcNAc
Summary of the method: as §1

[38] = biological target: Neu5Ac(a2-3)Gal(b1-4)GlcNAc(b1-3)Gal(b1-4)GlcNAc(b1-2)Man(a1-3)[Neu5Ac(a2-3)Gal(b1-4)GlcNAc(b1-3)Gal(b1-4)GlcNAc(b1-2)Man(a1-6)]Man(b1-4)GlcNAc(b1-4)GlcNAc
Summary of the method: as §1

[39] = biological target: Neu5Ac(a2-3)Gal(b1-4)GlcNAc(b1-3)Gal(b1-4)GlcNAc(b1-3)Gal(b1-4)GlcNAc
Summary of the method: as §1

[40] = biological target: Neu5Ac(a2-3)Gal(b1-4)GlcNAc(b1-3)Gal(b1-4)GlcNAc(b1-3)Gal(b1-4)GlcNAc(b1-2)Man(a1-3)[Neu5Ac(a2-3)Gal(b1-4)GlcNAc(b1-3)Gal(b1-4)GlcNAc(b1-3)Gal(b1-4)GlcNAc(b1-2)Man(a1-6)]GalNAc
Summary of the method: as §1

[41] = biological target: Neu5Ac(a2-3)Gal(b1-4)GlcNAc(b1-3)Gal(b1-4)GlcNAc(b1-3)GalNAc
Summary of the method: as §1

[42] = biological target: Neu5Ac(a2-3)Gal(b1-4)GlcNAc(b1-3)Gal(b1-4)GlcNAc(b1-3)[Neu5Ac(a2-3)Gal(b1-4)GlcNAc(b1-3)Gal(b1-4)GlcNAc(b1-6)]GalNAc
Summary of the method: as §1

[43] = biological target: Neu5Ac(a2-3)Gal(b1-4)GlcNAc(b1-3)Gal(b1-4)GlcNAc(b1-6)[Gal(b1-3)]GalNAc
Summary of the method: as §1

[44] = biological target: Neu5Ac(a2-3)Gal(b1-4)GlcNAc(b1-3)Gal(b1-4)[Fuc(a1-3)]GlcNAc
Summary of the method: as §1

[45] = biological target: Neu5Ac(a2-3)Gal(b1-4)GlcNAc(b1-3)GalNAc
Summary of the method: as §1

B1: LICBM33A (Lactococcus lactis), Q9CE94 (protein)
chain: MKKLLTGLLVAAGLLSVSLLIKTDTVSAHGYVQSPPARGYQGQLDSQSLGWTAAFNIYGNVISNPQSLEAPKGFPECGPADGRIASANGGLGQIGDFVLDNQTSSRWKKTSISTGSNIFTWKYTAPHKTTKWHYYMTKTGWDQNAPLKHSELELIGTINHDGSPATNNLSHTINIPTDRSGYHIVLAVWDVADTSNAFYNVIDINVNNKNASSQVFGPFL
- glycan array binding signal (z-score) [1]: 0.406
- glycan array binding signal (z-score) [2]: -0.472
- glycan array binding signal (z-score) [3]: -0.631
- glycan array binding signal (z-score) [4]: -0.127
- glycan array binding signal (z-score) [5]: -0.337
- glycan array binding signal (z-score) [6]: -0.551
- glycan array binding signal (z-score) [7]: -0.141
- glycan array binding signal (z-score) [8]: -0.238
- glycan array binding signal (z-score) [9]: 0.615
- glycan array binding signal (z-score) [10]: -0.346
- glycan array binding signal (z-score) [11]: -0.228
- glycan array binding signal (z-score) [12]: -0.513
- glycan array binding signal (z-score) [13]: -0.383
- glycan array binding signal (z-score) [14]: -0.697
- glycan array binding signal (z-score) [15]: -0.354
- glycan array binding signal (z-score) [16]: -0.249
- glycan array binding signal (z-score) [17]: 0.098
- glycan array binding signal (z-score) [18]: 3.52
- glycan array binding signal (z-score) [19]: 3.37
- glycan array binding signal (z-score) [20]: -0.189
- glycan array binding signal (z-score) [21]: 1.55
- glycan array binding signal (z-score) [22]: 0.795
- glycan array binding signal (z-score) [23]: -0.407
- glycan array binding signal (z-score) [24]: 1.84
- glycan array binding signal (z-score) [25]: 0.894
- glycan array binding signal (z-score) [26]: 0.435
- glycan array binding signal (z-score) [27]: -0.066
- glycan array binding signal (z-score) [28]: -0.421
- glycan array binding signal (z-score) [29]: 3.04
- glycan array binding signal (z-score) [30]: -0.464
- glycan array binding signal (z-score) [31]: -0.289
- glycan array binding signal (z-score) [32]: 0.049
- glycan array binding signal (z-score) [33]: -0.051
- glycan array binding signal (z-score) [34]: -0.147
- glycan array binding signal (z-score) [35]: -0.388
- glycan array binding signal (z-score) [36]: -0.245
- glycan array binding signal (z-score) [37]: -0.27
- glycan array binding signal (z-score) [38]: -0.451
- glycan array binding signal (z-score) [39]: 0.605
- glycan array binding signal (z-score) [40]: -0.006
- glycan array binding signal (z-score) [41]: 1.48
- glycan array binding signal (z-score) [42]: 1.85
- glycan array binding signal (z-score) [43]: 0.336
- glycan array binding signal (z-score) [44]: 1.85
- glycan array binding signal (z-score) [45]: -0.16
